Legend:
Assay in all cases: cell-based or functional assay
[1] = target: human insulin receptor (HIR, +exon 11) (human)
[2] = target: human insulin receptor (HIR, +exon 11) (human); remark: listed apart in the source
[3] = target: human insulin receptor (HIR, +exon 11) (human); remark: listed apart in the source

pAkt assay, EC50(nM), DP (liquid formulation) [1] | pAkt assay, EC50(nM), DS (drug substance) [1] | pAkt assay, EC50 (nM) [2] | pAkt assay, Relative Potency against human insulin [2] | pAkt assay, Relative Potency against human insulin (percent) [2] | pAkt assay, EC50 (nM), DP (2700 nmol tablet) [3] | Binder
591 nM | 619 nM | 522 nM | 0.0006 | 0.06% |  | A14E, B16E, B25H, B29K(N(eps)eicosanedioyl-gGlu-2×OEG), desB30 human insulin (ligand, B29K(N(eps)eicosanedioyl-gGlu-2×OEG): Lys B29 acylated on the epsilon amino group) chain 1: not shown chain 2: FVNQHLCGSHLVEALELVCGERGFHYTPK
 |  |  | 0.0064 | 0.64% | 47 nM | A14E, B25H, B29K(N^εOctadecanedioyl-gGlu-OEG-OEG), desB30 human insulin (ligand, B29K(N^εOctadecanedioyl-gGlu-OEG-OEG): Lys B29 acylated on the epsilon amino group) chain 1: not shown chain 2: FVNQHLCGSHLVEALYLVCGERGFHYTPK
